The campaign covered roughly 390,000 compounds. About 4,000 (1%) were called active. This list was built around the results that the source calls inconclusive (neither active nor inactive); the mix of calls is not that of the screen. Calls come from the whole dose curve; as a rule, active = well fitted inhibition curve with a large enough effect; inconclusive = small, poorly fitted or top-dose-only effect; inactive = no such curve, though single readings can be large or run the other way. Potencies beside an inconclusive call are fits to weak or partial responses and may not hold up.
The molecules below were run against Thioredoxin reductase 1, cytoplasmic (Rattus norvegicus) (UniProt O89049) (assay: qHTS Assay for Inhibitors of Mammalian Selenoprotein Thioredoxin Reductase 1 (TrxR1): qHTS). Details: recombinant rTrxR1, NADPH fluorescence consumption, selenite substrate; series mostly up to 114 µM; activity change, negative = inhibition: at the top concentration.
Chain of UniProt O89049 (O89049 whole entry, looked up): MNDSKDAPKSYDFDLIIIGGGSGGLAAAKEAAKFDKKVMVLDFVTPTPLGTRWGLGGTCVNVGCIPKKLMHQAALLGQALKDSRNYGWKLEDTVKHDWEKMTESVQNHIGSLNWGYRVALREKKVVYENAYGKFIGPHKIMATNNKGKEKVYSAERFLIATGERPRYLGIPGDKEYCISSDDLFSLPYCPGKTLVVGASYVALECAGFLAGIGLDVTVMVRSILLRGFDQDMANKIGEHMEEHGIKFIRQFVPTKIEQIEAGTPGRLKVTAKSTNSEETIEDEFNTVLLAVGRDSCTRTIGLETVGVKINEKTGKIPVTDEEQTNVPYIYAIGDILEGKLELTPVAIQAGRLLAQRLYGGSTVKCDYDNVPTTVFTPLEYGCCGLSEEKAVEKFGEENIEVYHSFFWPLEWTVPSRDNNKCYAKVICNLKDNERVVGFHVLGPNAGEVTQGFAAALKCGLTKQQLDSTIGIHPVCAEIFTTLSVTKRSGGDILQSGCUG
How it was run: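 Rat TrxR1 (90 nM in the dispensed reagent) was pre-reduced with 400 uM NADPH for 5 min at room temperature, then incubated with compound for 15 min. After 400 uM selenite was added, NADPH fluorescence (Ex 340/Em 450 nm) was followed for 8 min.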
% is set by controls: 0 for no effect and ±100 for the full control effect; potency is the fitted concentration of half-maximal effect; tags give direction and shape of the fitted curve.
Note: nearly all actives have a fitted effect of over 65% in size.

Compound | activity change, negative = inhibition | Potency
COC(=O)c1c(C)nc(C)c(C(=O)OC)c1-c1ccc(OC)c(OC)c1 | inactive: -1.73% [at 57.1 µM] | 
Cc1ccc(-c2nc(CS(=O)(=O)CC(=O)NC3CCCCCC3)c(C)o2)cc1 |  | active: 79.4 µM
O=C(NCCc1ccccn1)/C(=C/c1ccco1)NC(=O)c1ccccc1 |  | inconclusive: 20 µM [inhibitor, partial curve, poor fit]
C=C1C(=O)[C@@]23[C@H](O)C[C@@H]4C(C)(C)CC[C@H](O)[C@@]4(C)[C@@H]2CC[C@@H]1[C@H]3O |  | active: 14.1 µM
O=C(O)c1cc(-c2ccc(/C=N/NC(=S)Nc3ccccc3)o2)ccc1Cl | inactive: -31.7% [at 57.1 µM] | 
CC(=O)OCC(=O)[C@@]12OC3(CCCC3)O[C@@H]1C[C@H]1[C@@H]3CCC4=CC(=O)C=C[C@]4(C)[C@@]3(F)[C@@H](O)C[C@@]12C | inactive: 11.6% | 
CC(=C/c1ccccc1)/C=N/n1c(-c2ccncc2)n[nH]c1=S | inactive: -12% | 
COc1ccc(Br)cc1CNc1ccc(O)cc1 |  | inconclusive: 50.1 µM [inhibitor, partial curve, poor fit]
CCSc1nnc(SCC(=O)N2CCN(C(=O)c3ccco3)CC2)s1 |  | inconclusive: 79.4 µM [inhibitor, partial curve]
CC(O)c1nc2ccccc2[nH]1 (centres undefined) | inactive: 7.89% | 
COc1ccc(/C=N/n2cc(-c3ccccc3)nc2N)cc1 |  | inconclusive: 79.4 µM [inhibitor, single point]
COc1ccc(OC)c2c1C(=O)C(Cl)=C(Cl)C2=O |  | active: 0.158 µM
COc1ccc(C(=O)NC(=S)Nc2cccnc2)cc1OC |  | inconclusive: 31.6 µM [inhibitor, partial curve, poor fit]
CCc1nn(CC(=O)N2CCN(Cc3ccc4c(c3)OCO4)CC2)c(=O)c2cc3occc3n12 | inactive: -18.1% | 
O=C(O)c1cccc(S(=O)(=O)Nc2ccc(O)cc2Sc2nc3ccccc3s2)c1 |  | inconclusive: 39.8 µM [inhibitor, single point]
O=C(NCC1CCCO1)/C(=C\c1ccco1)NC(=O)c1ccccc1 (centres undefined) |  | inconclusive: 17.8 µM [inhibitor, partial curve, poor fit]
COC(=O)Cc1ccc(NC(=S)NCc2ccc(F)cc2)cc1 |  | inconclusive: 7.08 µM [inhibitor, partial curve]
Cc1ccc(S(=O)(=O)C/N=C(/NC(=S)N(c2ccccc2)c2ccccc2)c2ccccc2)cc1 |  | inconclusive: 10 µM [inhibitor, partial curve, poor fit]
CN(C)S(=O)(=O)c1cccc(NC(=O)COC(=O)/C=C/c2ccc(Br)o2)c1 |  | inconclusive: 50.1 µM [inhibitor, partial curve]
CC(C)(C)NC(=O)c1cc(NC(=O)c2ccco2)cc(NC(=O)c2ccco2)c1 |  | inconclusive: 28.2 µM [inhibitor, full curve, poor fit]
COC(=O)CCC(=O)OC1(C)C(=O)C=C2C=C(C3CC3)N(CCCOC(C)C)C=C2C1=O (centres undefined) |  | inconclusive: 63.1 µM [inhibitor, partial curve, poor fit]
Cc1nnc(N2C(=O)c3cccc4c([N+](=O)[O-])ccc(c34)C2=O)s1 |  | inconclusive: 2.82 µM [inhibitor, full curve, poor fit]
O=c1cc(C(F)(F)F)[nH]c2c(OC(F)(F)F)cccc12 | inactive: 4.43% | 

Compound | activity change, negative = inhibition | Potency
CC1CCN(S(=O)(=O)c2ccc(C(=O)Nc3nnc(-c4ccncc4)o3)cc2)CC1 | inactive: -22% | 
Clc1ccc(OCc2nnc(SCCN3CCCCC3)n2Cc2ccco2)cc1 |  | inconclusive: 28.2 µM [inhibitor, single point]
CCCOc1ccc(C(=O)Nc2ccc(NC(=O)c3ccccc3)c(Br)c2)cc1 | inactive: -6.47% | 
COc1cc(C2NC(=O)NC(c3ccccc3)=C2C(C)=O)ccc1OCC#N (centres undefined) | inactive: -0.703% | 
Cc1cccc(NC(=S)NNC(=O)c2ccccc2Br)c1 |  | inconclusive: 14.1 µM [inhibitor, full curve]
COc1ccc(Cl)cc1NC(=O)C/C(C)=N/NC(=O)c1ccccc1[N+](=O)[O-] | inactive: 10.5% | 
O=C(NCc1ccco1)/C(=C/c1ccco1)NC(=O)c1ccc(Br)o1 |  | active: 50.1 µM
CCN1CCS/C1=C/C=C/C1=[N+](CC)CCS1 |  | inconclusive: 3.98 µM [inhibitor, full curve, poor fit]
COC(=O)c1cc(S(=O)(=O)C(C)C)c(S(C)=O)s1 (centres undefined) |  | inconclusive: 44.7 µM [inhibitor, partial curve, poor fit]
CCn1c(=S)[nH]c2c(=O)n(C)c(=O)n(C)c21 | inactive: -12.5% [at 2.29 µM] | 
COC(=O)C1=CNC=C(C(=O)OC)C1c1ccccc1Cl |  | inconclusive: 39.8 µM [inhibitor, single point]
Cc1ccc(C)c(Cn2c(CCCNC(=O)C3CCCCC3)nc3ccccc32)c1 | inactive: 2.37% | 
O=C(Nc1cccc(O)c1)c1noc2c1CCc1ccccc1-2 |  | inactive
Cc1[nH]nc(N=CC2=C(O)CC(C)(C)CC2=O)c1-c1ccc(Cl)cc1 |  | inconclusive: 79.4 µM [inhibitor, partial curve, poor fit]
Cc1cccc(N2CCN(C(=O)C3CCC(=O)N(Cc4ccccc4F)C3)CC2)c1C (centres undefined) |  | inconclusive: 70.8 µM [inhibitor, partial curve]
O=C(c1ccco1)N1CCn2c1nc1ccccc12 | inactive: 17% | 
COc1cc(/C=C/C(=O)OCC(=O)N(C)C2CCS(=O)(=O)C2)ccc1OC(F)F (centres undefined) |  | inconclusive: 79.4 µM [inhibitor, partial curve, poor fit]
COc1ccc(-c2ccc(CCC(=O)O)n2-c2ccc(Cl)cc2C)cc1 |  | inconclusive: 56.2 µM [inhibitor, single point]
CCc1ccc(-n2nc(CO)c(C(=O)NCc3ccccc3OC)n2)cc1 |  | inconclusive: 89.1 µM [inhibitor, single point]
COc1cc(C2Nc3ccccc3C(=O)N2Cc2ccco2)cc(OC)c1OC (centres undefined) |  | inconclusive: 89.1 µM [inhibitor, single point]
O=C(/C=C/c1ccc([N+](=O)[O-])cc1)c1cccnc1 |  | active: 31.6 µM
COCC1CCCCN1C(=O)c1ccc(OC2CCN(Cc3ccccn3)CC2)cc1 (centres undefined) |  | inconclusive: 70.8 µM [inhibitor, partial curve, poor fit]
O=C(/C=C/c1cccc([N+](=O)[O-])c1)c1cccs1 |  | inconclusive: 11.2 µM [inhibitor, full curve]

Compound | activity change, negative = inhibition | Potency
O=C(Nc1nc(-c2ccc3ccccc3c2)cs1)C1CCN(S(=O)(=O)c2cccs2)CC1 | inactive: 11.5% | 
C/C=C/c1ccc(O)c(OC)c1 |  | inconclusive: 5.01 µM [inhibitor, partial curve]
COc1ccc(-c2csc(NC(=O)c3c(C)noc3C)n2)cc1 |  | inconclusive: 89.1 µM [inhibitor, partial curve, poor fit]
COC(=O)c1ccc(CSc2ccc3nnc(-c4ccccn4)n3n2)o1 |  | inconclusive: 89.1 µM [inhibitor, single point]
Cc1cc(NC(=O)CSc2nc(Cc3ccc(O)cc3)c(C)[nH]2)no1 |  | active: 15.8 µM
CCN(CC)CCCNC(=O)c1cc(Nc2ccc(OC)cc2)nc2ccccc12 | inactive: 1.98% [at 57.1 µM] | 
O=C1CC(c2ccccc2)CC(O)=C1C=Nc1cccc(Cl)c1 (centres undefined) | inactive: -6.11% | 
CCOC(=O)COc1c(C(=O)OC)sc2ncccc12 | inactive: 6.05% [at 57.1 µM] | 
Cc1ccc2nc(-c3ccc(NC(=O)CN4CCN(C(=O)c5ccco5)CC4)cc3)sc2c1 |  | inconclusive: 11.2 µM [inhibitor, partial curve]
CCOc1ccc(C2C=C(c3ccc(C)cc3)Nc3nnnn32)cc1 (centres undefined) |  | inconclusive: 44.7 µM [inhibitor, partial curve, poor fit]
CC1CC(C)CN(CCCNC(=O)c2cc3c(s2)-c2ccccc2OC3)C1 (centres undefined) |  | inconclusive: 89.1 µM [inhibitor, single point]
Cn1c(CCNC(=O)OC(C)(C)C)n[nH]c1=S |  | inconclusive: 2.51 µM [inhibitor, partial curve, poor fit]
O=[N+]([O-])c1ccc(/C=N/NS(=O)(=O)c2ccc(Cl)cc2)o1 |  | active: 14.1 µM
COc1ccc(C2CC(=O)N(Cc3ccccc3)c3c2c(C)nn3-c2nc(C)cc(C)n2)c(OC)c1 (centres undefined) | inactive: 16.5% | 
CCOc1cc(C(=O)NCCN2C(=O)S/C(=C\c3cccnc3)C2=O)cc(OCC)c1OCC | inactive: 13.2% | 
Cc1csc(NC(=O)/C=C/c2ccc(C)o2)n1 |  | inconclusive: 70.8 µM [inhibitor, partial curve]
O=C(NCc1n[nH]c(=S)n1-c1ccc(Cl)c(Cl)c1)c1ccc(S(=O)(=O)N2CCCCC2)cc1 |  | inconclusive: 56.2 µM [inhibitor, single point]
CCOC(=O)c1cnc2c(Cl)cc(Cl)cc2c1NCCCN1CCOCC1 |  | active: 15.8 µM
c1ccc(Cc2nnc3sc(-c4ccccn4)nn23)cc1 |  | inconclusive: 20 µM [inhibitor, single point]
Cc1ccccc1OCC(=O)NCC(C)NC(=O)COc1ccccc1C (centres undefined) | inactive: -32.6% | 
O=C1/C(=C/c2ccc(N3CCOCC3)o2)SC(=Nc2ccccc2)N1CCc1c[nH]c2ccccc12 |  | active: 10 µM
O=C1CC(c2cccc(Cl)c2)c2cc3c(cc2N1)CCC3 (centres undefined) | inactive: 13.2% | 
C#CCOCCOCCOCCNc1nc(N2CCN(C(=O)[C@H]([C@@H](C)CC)n3cc([C@@H](N)Cc4ccc(O)cc4)nn3)CC2)nc(N2CCN(C(=O)[C@H](Cc3cc4ccccc4[nH]3)n3cc([C@@H](N)CC(C)C)nn3)CC2)n1 |  | inconclusive: 50.1 µM [inhibitor, partial curve]
